Source: PubChem BioAssay AID1745845 (National Center for Advancing Translational Sciences (NCATS), 2022)
In all, about 360,000 compounds went through this assay and about 2,600 (0.72%) were called active. The shares of active, inactive and inconclusive entries below differ from those in the screen. Calls come from the whole dose curve; as a rule, active = well fitted inhibition curve with a large enough effect; inconclusive = small, poorly fitted or top-dose-only effect; inactive = no such curve, though single readings can be large or run the other way. Potencies of inconclusive entries are doubtful fits and often do not repeat.

test: Primary qHTS for Inhibitors of ATXN expression; conditions: HEK-293 ATXN2-luciferase reporter, luminescence, 24 h; activity change, negative = inhibition: at 57 µM (top of the series); note: nearly all actives have a fitted effect of over 55% in size
Summary of the method: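 qHTS (up to 57 uM final) was run with 24 h compound exposure of reporter cells at 37 °C. Each well was multiplexed: SteadyGlo luminescence measured ATXN2-luciferase expression after a fluorogenic Gly-Phe-AFC viability readout (25 uM final).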
% is set by controls: 0 for no effect and ±100 for the full control effect; potency is the fitted concentration of half-maximal effect; tags give direction and shape of the fitted curve.

| SMILES | Potency | activity change, negative = inhibition |
| --- | --- | --- |
| NS(=O)(=O)c1ccc(N2N=C(c3ccccc3)CC2c2ccc(Br)cc2)cc1 (configuration not stated) | inconclusive: 39.8 µM [inhibitor, single point] |  |
| COc1cccc(C(=O)N/N=C(\C)CC(=O)Nc2ccc(N(C)C)cc2)c1 |  | inactive: 8.88% |
| CC(=O)c1ccc(N2CCN(C(=S)Nc3ccc(Oc4ccccc4)cc3)CC2)cc1 | inconclusive: 10 µM [inhibitor, partial curve, poor fit] |  |
| COc1ccc(CCNC(=O)c2cc(-c3ccccc3)c(N3CCOCC3)s2)cc1OC | inconclusive: 39.8 µM [inhibitor, single point] |  |
| COc1cccc(C#Cc2ccc3c(c2)O[C@H](CN(C)C)[C@@H](C)CN([C@@H](C)CO)S3(=O)=O)c1 | inconclusive: 20 µM [inhibitor, partial curve, poor fit] |  |
| O=C(Nc1ccc(N2CCN(C(=O)c3ccc(Cl)cc3)CC2)cc1)c1ccc(Br)o1 |  | inactive: -22% |
| CCN(CC(=O)Nc1cc(C)on1)CC(=O)Nc1ccccc1C(F)(F)F |  | inactive: -13.9% |
| Cc1ccc(N(CC(=O)N2CCN(c3ccc(Cl)cc3)CC2)S(=O)(=O)c2c(C)noc2C)cc1 |  | inactive: 5.68% |
| Cn1cc(Br)c(C(=O)NC(=S)N2CCN(c3ccccn3)CC2)n1 |  | inactive: -19% |
| Cc1ccc(OCC(=O)Nc2ccc(O)c(-c3nc4ccccc4o3)c2)cc1 | inconclusive: 28.2 µM [inhibitor, single point] |  |
| COc1cc(SC#N)ccc1N=Cc1c(C)[nH]n(-c2ccc(C)cc2)c1=O | inconclusive: 26.7 µM [inhibitor, single point] |  |
| CCOc1ccc(C(=O)Nc2ccc(S(=O)(=O)N3CCCCC3c3cccnc3)cc2)cc1 (configuration not stated) | active: 17.8 µM |  |
| NS(=O)(=O)c1ccc(N/N=C2/CCCCC2C2CCCCC2)c([N+](=O)[O-])c1 (configuration not stated) | inconclusive: 22.4 µM [inhibitor, partial curve, poor fit] |  |
| O=C1/C(=C\c2cccc(O)c2O)SC(=S)N1Cc1ccccc1 | inconclusive: 14.1 µM [inhibitor, single point] |  |
| CC(C)COc1cccc(C(=O)NC(=S)Nc2cccc(NC(=O)c3ccccc3Cl)c2)c1 |  | inactive: -8.55% |
| S=C(NCc1ccccc1)Nc1cccc2cnccc12 | inconclusive: 29.9 µM [inhibitor, partial curve, poor fit] |  |
| Cc1ccc(S(=O)(=O)CCC(=O)N(CCCN2CCOCC2)c2nc3ccccc3s2)cc1 | inconclusive: 39.8 µM [inhibitor, single point] |  |
| O=C(NN=C1CCCC1)c1cc(-c2ccc(F)cc2)nc2ccccc12 | inconclusive: 25.1 µM [inhibitor, partial curve, poor fit] |  |
| CCCCOc1ccc(-c2cc(C(=O)NNC(=S)NCC)c3ccccc3n2)cc1 | inconclusive: 39.8 µM [inhibitor, single point] |  |
| COc1cc(/C=C/C(=O)OCc2c(C)noc2C)ccc1OC(F)F | inconclusive: 9.47 µM [inhibitor, partial curve] |  |
| Cc1cccc(C)c1NC(=O)CN1CCN(c2ccc(C(F)(F)F)cn2)CC1 |  | inactive: -19.3% |

| SMILES | Potency | activity change, negative = inhibition |
| --- | --- | --- |
| COc1ccc(CNC(=O)c2cccc3c(-c4cccc(C(N)=O)c4)coc23)cc1OC | active: 31.6 µM |  |
| CNC1[C@H](O)C(O[C@@H]2C(O)C(O[C@H]3O[C@H]([C@@H](C)NC)CC[C@H]3N)[C@@H](N)C[C@H]2N)OC[C@]1(C)O (some centres not stated) |  | inactive: -4.91% |
| COc1ccc(C2/C=C\CN(C(=O)C3CCCC3)CC(=O)N2Cc2ccc(F)cc2)cc1 (configuration not stated) | inconclusive: 39.8 µM [inhibitor, partial curve, poor fit] |  |
| CCC(C)NC(=O)c1ccc2nc(-c3ccc(OC)c(OC)c3)c(-c3ccc(OC)c(OC)c3)nc2c1 (configuration not stated) |  | inactive: -5.18% |
| O=c1oc2ccccc2n1CCn1c2ccccc2c2nc3ccccc3nc21 | inconclusive: 28.2 µM [inhibitor, single point] |  |
| CCN(CC)CCNC(=O)C1CCN(S(=O)(=O)c2c(C)noc2/C=C/c2ccccc2F)CC1 | active: 12.6 µM |  |
| CCC/C=N/NC(=O)c1[nH]c2c([N+](=O)[O-])cccc2c1C | inconclusive: 28.2 µM [inhibitor, single point] |  |
| NC(=S)N/N=C/c1ccccc1OCc1cccc(Cl)c1 | inconclusive: 39.8 µM [inhibitor, single point] |  |
| COC1=C(Br)C(=O)c2ncccc2C1=O | active: 15 µM |  |
| Cc1ccc(C(=O)Sc2cccccc2=O)cc1 | inconclusive: 1.12 µM [inhibitor, full curve, poor fit] |  |
| COc1ccc(-c2nc(-c3ccc(NC(=O)c4ccc(Br)o4)cc3)no2)cc1OC | inconclusive: 39.8 µM [inhibitor, single point] |  |
| CCOC(=O)/C=C/C(=O)Nc1ccc(S(=O)(=O)N(C)c2ccccc2)cc1 | inconclusive: 1.5 µM [inhibitor, full curve] |  |
| CCOc1ccc(N=Nc2c(C)noc2C)cc1 |  | inactive: 3.78% [at 11.3 µM] |
| O=C(NCc1ccccn1)c1c(-c2ccccc2)sc2ccccc12 | inconclusive: 35.5 µM [inhibitor, single point] |  |
| O=C(c1ccc(=O)oc1)N1CCCc2ccccc21 |  | inactive: 9.24% |
| Cc1ccccc1OCC(=O)Nc1ccccc1CO |  | inactive: 5.4% |
| O=C(Nc1ccc(Cl)c(S(=O)(=O)N2CCOCC2)c1)c1ccc(OCC2CCCO2)cc1 (configuration not stated) | inconclusive: 8.91 µM [inhibitor, partial curve, poor fit] |  |
| CC(C)n1nc(C(=O)Oc2cccc(Cl)c2Cl)c2ccccc2c1=O | inconclusive: 17.8 µM [inhibitor, partial curve] |  |
| Cc1ccc(C(=O)Nc2nc3ccccc3[nH]2)cc1 | active: 3.55 µM |  |
| COc1cccc(-n2c(SCC(=O)N3CCc4ccccc43)nnc2-c2c[nH]c3ccccc23)c1 | inconclusive: 17.8 µM [inhibitor, partial curve, poor fit] |  |
| CCN1C(=O)[C@@H]2[C@@H](c3ccc(-c4ccc(Cl)c(Cl)c4)c(OC)c3)N3CCC[C@@]3(C(=O)OC)[C@@H]2C1=O | inconclusive: 20 µM [inhibitor, single point] |  |
